The supplement of paper PMC11125491
± gives the standard deviation of the averaged measurements. Growth of baker's yeast expressing single-residue variants of Pneumocystis jirovecii dihydrofolate reductase in 8.8 or 44 µM methotrexate (about 75% and 90% inhibition of the wild type). Selection coefficient per generation; 0 = like wild type, above 0 = less sensitive, below 0 = more sensitive or loss of function. No active / inactive call per row; the paper calls resistant above 0.220 (8.8 µM) or 0.243 (44 µM) together with a significance test. At 44 µM about 15% of codons end with one read or none, so the lowest values are floors (replicate rank correlation 0.74; 0.94 at 8.8 µM).

B1: UniProt A0EPZ9; numbered along this chain (parent)
chain: MDWQKSLTLIVALTLSRGIGLKNDLPWKLKSDMMFFSRVTSGLLVTRSTGQMNVVLMGRKTWESLPAHSRPLKNRINVVISRQEVLDLGGGAYHARSLDDALALLSQIYDSTSKIQLNRVFVIGGGELCKAAMEHSRLNRIIATVIHNEVDCDVFFPIDFRSSQSCLPWRKQDHSVLEAWVGSKVPQGKINENGFIYEFEMWIRDI

Variants of: B1
Assay: selection coefficient against synonymous wild-type codons (log2 per generation); higher = faster growth than wild type
Details: with Saccharomyces cerevisiae carrying the variant on a plasmid
Protocol: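 Pooled growth of yeast carrying single-residue variants of P. jirovecii dihydrofolate reductase (own DFR1 gene intact), two passages at 30 °C, three cultures, sequenced before and after. Codons with under 15 starting reads are left out; codons of one change are averaged.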

Variant | selection coefficient against synonymous wild-type codons (log2) (methotrexate 8.8 µM) | selection coefficient against synonymous wild-type codons (log2) (methotrexate 44 µM)
F36R | -0.296 ± 0.092 | -0.0423 ± 0.13
F36S | -0.126 ± 0.069 | 0.163 ± 0.09
F36T | -0.0565 ± 0.079 | 0.149 ± 0.048
F36V | 0.556 ± 0.03 | 0.681 ± 0.05
F36W | 0.105 ± 0.036 | 0.157 ± 0.038
F36Y | 0.781 ± 0.05 | 0.969 ± 0.041
S37A | -0.143 ± 0.039 | -0.1 ± 0.061
S37C | -0.373 ± 0.15 | -0.205 ± 0.2
S37D | 0.0797 ± 0.0029 | 0.199 ± 0.057
S37E | 0.469 ± 0.012 | 0.531 ± 0.022
S37F | -0.366 ± 0.16 | -0.269 ± 0.059
S37G | -0.0513 ± 0.043 | -0.0473 ± 0.057
S37H | -0.295 ± 0.042 | -0.0337 ± 0.088
S37I | -0.254 ± 0.069 | -0.14 ± 0.12
S37K | -0.14 ± 0.051 | -0.111 ± 0.05
S37L | -0.146 ± 0.052 | -0.112 ± 0.11
S37M | -0.215 ± 0.028 | -0.16 ± 0.12
S37N | 0.17 ± 0.023 | 0.243 ± 0.054
S37P | 0.617 ± 0.04 | 0.77 ± 0.046
S37Q | 0.0185 ± 0.033 | 0.00642 ± 0.092

Variant | selection coefficient against synonymous wild-type codons (log2) (methotrexate 8.8 µM) | selection coefficient against synonymous wild-type codons (log2) (methotrexate 44 µM)
S37R | -0.0862 ± 0.099 | -0.0238 ± 0.15
S37T | -0.113 ± 0.046 | -0.07 ± 0.1
S37V | -0.435 ± 0.15 | -0.191 ± 0.11
S37W | -0.274 ± 0.033 | -0.136 ± 0.073
S37Y | -0.19 ± 0.081 | -0.0469 ± 0.087
R38A | 0.00287 ± 0.063 | 0.0026 ± 0.12
R38C | -0.0909 ± 0.0077 | -0.0167 ± 0.0081
R38D | 0.202 ± 0.042 | 0.219 ± 0.033
R38E | 0.195 ± 0.038 | 0.219 ± 0.0048
R38F | -0.232 ± 0.013 | -0.151 ± 0.073
R38G | 0.116 ± 0.053 | 0.159 ± 0.13
R38H | -0.0285 ± 0.023 | -0.0232 ± 0.12
R38I | -0.167 ± 0.046 | -0.183 ± 0.017
R38K | 0.256 ± 0.018 | 0.284 ± 0.074
R38L | -0.0414 ± 0.096 | 0.007 ± 0.071
R38M | -0.0204 ± 0.028 | 0.00949 ± 0.027
R38N | 0.165 ± 0.051 | 0.162 ± 0.075
R38P | 0.228 ± 0.036 | 0.323 ± 0.076
R38Q | 0.107 ± 0.037 | 0.149 ± 0.071
R38S | 0.0387 ± 0.039 | 0.00399 ± 0.063

Variant | selection coefficient against synonymous wild-type codons (log2) (methotrexate 8.8 µM) | selection coefficient against synonymous wild-type codons (log2) (methotrexate 44 µM)
R38T | 0.0389 ± 0.086 | 0.139 ± 0.075
R38V | -0.135 ± 0.041 | -0.0243 ± 0.089
R38W | -0.114 ± 0.015 | -0.169 ± 0.12
R38Y | -0.182 ± 0.047 | -0.195 ± 0.12
V39A | 0.275 ± 0.034 | 0.285 ± 0.044
V39C | 0.0977 ± 0.018 | 0.0677 ± 0.023
V39D | -0.38 ± 0.11 | -0.229 ± 0.091
V39E | -0.299 ± 0.12 | -0.0609 ± 0.033
V39F | 0.222 ± 0.026 | 0.285 ± 0.089
V39G | -0.17 ± 0.046 | 0.0647 ± 0.033
V39H | 0.0264 ± 0.051 | 0.166 ± 0.039
V39I | 0.0667 ± 0.041 | 0.127 ± 0.11
V39K | -0.572 ± 0.17 | -0.303 ± 0.16
V39L | 0.244 ± 0.033 | 0.284 ± 0.059
V39M | 0.458 ± 0.025 | 0.54 ± 0.014
V39N | 0.289 ± 0.017 | 0.41 ± 0.085
V39P | -0.402 ± 0.03 | -0.154 ± 0.061
V39Q | 0.0864 ± 0.0076 | 0.25 ± 0.062
